Data taken from PubChem BioAssay AID588855 (National Center for Advancing Translational Sciences (NCATS), 2011).
Out of some 410,000 compounds screened, about 5,000 (1.2%) were called active. Inconclusive means that the source gave no clear call. Such entries were picked first, then a sample of the others. Calls come from the whole dose curve; as a rule, active = well fitted inhibition curve with a large enough effect; inconclusive = small, poorly fitted or top-dose-only effect; inactive = no such curve, though single readings can be large or run the other way. Potencies beside an inconclusive call are fits to weak or partial responses and may not hold up.

Assay: qHTS for Inhibitors of TGF-b; note: nearly all actives have a fitted effect of over 65% in size
Conditions: HepG2 CAGA-GFP TGF-b/SMAD3 reporter, GFP fluorescence, 18 h, TGF-beta stimulated, 500 pg/mL final; series mostly up to 46.1 µM; activity, negative = inhibition: at the top concentration
In short: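 Cell-based qHTS in HEPG2 carrying a CAGA-GFP Smad reporter; compounds added before 500 pg/mL final TGF-beta, 18 h incubation at 37 degrees C, GFP fluorescence quantified per cell by imaging cytometry.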
% is set by controls: 0 for no effect and ±100 for the full control effect; potency is the fitted concentration of half-maximal effect; tags give direction and shape of the fitted curve.

Structure (SMILES)	Potency	activity, negative = inhibition
CC1CC2=C(C(=O)O1)C(C)Nc1ccccc1N2 (centres undefined)	inconclusive: 5.62 µM [inhibitor, full curve, poor fit]	
COc1ccc(C(=O)Cn2c(C)nc([N+](=O)[O-])c2Br)cc1	inconclusive: 35.5 µM [inhibitor, single point]	
CN(C(=O)c1cccc(NC(=O)Cc2cccc([N+](=O)[O-])c2)c1)C1CCCC1	inconclusive: 11.2 µM [inhibitor, partial curve, poor fit]	
COc1ccc(OC)c(NC(=O)C2CCN(Cc3cnn(-c4ccccc4)c3-n3cccc3)CC2)c1	inconclusive: 35.5 µM [inhibitor, single point]	
COCCn1c(CN2CC(C)CC(C)C2)nc2c1c(=O)n(C)c(=O)n2C (centres undefined)		inactive: 0.273%
O=S(=O)(c1ccc(Br)cc1)N1CCn2cccc2C1c1ccc(Br)cc1 (centres undefined)	inconclusive: 22.4 µM [inhibitor, single point]	
COc1ccccc1C1CC(=O)Oc2cc(C)c(Cl)cc21 (centres undefined)	inconclusive: 3.16 µM [inhibitor, full curve]	
CCCCN(CCCC)Cc1cc(=O)oc2ccccc12		inactive: -10.1%
Cc1cc(C)c(C)c(S(=O)(=O)N2CCN(c3ccc(O)cc3)CC2)c1C	inconclusive: 1.41 µM [inhibitor, partial curve, poor fit]	
CN(C(=O)c1ccc(Cl)cc1)c1ccc(OCC(=O)Nc2cc(C(=O)O)ccc2Cl)cc1		inactive: -2.72%
Cc1ccc(-n2nnnc2CNC(=O)c2ccc([N+](=O)[O-])o2)cc1C	inconclusive: 25.1 µM [inhibitor, single point]	
Cc1ccc(NC(=O)CN(C)C(=O)c2ccc(Cl)nc2)cc1		inactive: -11.4%
COc1ccc(Nc2nc(NC(C)(C)C)nc(N3CCCC3)n2)c(OC)c1	inconclusive: 35.5 µM [inhibitor, single point]	
CCOc1cc(C2NC(=O)c3ccccc3O2)ccc1OC (centres undefined)	inconclusive: 3.55 µM [inhibitor, single point]	
Cc1ccc(C)c2[nH]c(=O)c(CN(CC3CCCO3)S(=O)(=O)c3ccc4c(c3)OCCO4)cc12 (centres undefined)	inconclusive: 3.16 µM [inhibitor, single point]	
CCCC(c1nnnn1CCOC)N1CCN(c2nc3ccccc3s2)CC1 (centres undefined)	inconclusive: 35.5 µM [inhibitor, single point]	
Cc1cc(/C=N/NC(=O)C(=O)N2CCCC2)c(C)n1-c1cccc(Br)c1	inconclusive: 35.5 µM [inhibitor, single point]	
COc1ccc(C(=O)NCC(c2cccs2)S(=O)(=O)c2cccs2)cc1 (centres undefined)	inconclusive: 5.62 µM [inhibitor, single point]	
CN(C(=O)c1cccc(NC(=O)Cc2ccc(NC(=O)C3CCCN(S(=O)(=O)c4cccc([N+](=O)[O-])c4)C3)cc2)c1)C1CCC1 (centres undefined)		inactive: -13%
CCOC(=O)c1ccc(NC(=O)COc2ccccc2CNC2CCCC2)cc1		inactive: -3.65%
CC1=C(C(=O)OC2CCCCCC2)C(c2c(Cl)cccc2Cl)CC(=O)N1 (centres undefined)	inconclusive: 11.2 µM [inhibitor, partial curve, poor fit]	
Cc1ccc(Cn2c(NS(=O)(=O)c3ccccc3)nc3ccccc32)cc1	inconclusive: 8.91 µM [inhibitor, partial curve, poor fit]	
O=C(NCc1ccc2c(c1)OCO2)c1ccc(-c2ccc(Cl)cc2)o1	inconclusive: 35.5 µM [inhibitor, single point]	

Structure (SMILES)	Potency	activity, negative = inhibition
O=C(/C=C/c1ccccc1)c1ccoc1	inconclusive: 28.2 µM [inhibitor, partial curve, poor fit]	
CCOc1ccc(CCNC(c2nnc(-c3ccccc3)o2)c2ccccc2Cl)cc1OCC (centres undefined)	inconclusive: 11.2 µM [inhibitor, single point]	
O=C(Cc1ccccc1)NCCSC1CCCCC1		inactive: -9.9%
CCCCN(C(=O)c1ccc(Cl)cc1)C1CC2CCC(C1)N2C (centres undefined)		inactive: 9.69%
CCCN(C(=O)Cn1nc(Cc2cccnc2)c2ccccc2c1=O)c1ccc(C(C)C)cc1	active: 20 µM	
Cc1nc(N(C)C)c2sc(=S)n(Cc3ccccc3)c2n1		inactive: 9.38%
CC(C)N(C(=O)CSc1nc(Cc2ccccc2)nc2ccccc12)C(C)C	inconclusive: 35.5 µM [inhibitor, single point]	
Cc1ccc(C(=O)COC(=O)c2cccc(NC(=O)c3ccc([N+](=O)[O-])cc3[N+](=O)[O-])c2)cc1	inconclusive: 10 µM [inhibitor, partial curve, poor fit]	
CC1Cc2cc(/C(O)=C3/C(=O)C(=O)N(CC4CCCO4)C3c3ccco3)ccc2O1 (centres undefined)	inconclusive: 6.31 µM [inhibitor, single point]	
Cc1c(C(=O)NN2CCOCC2)oc2ccccc12		inactive: -0.0458%
O=C1CSC(=S)N1Cc1ccccc1	inconclusive: 22.4 µM [inhibitor, single point]	
CCCCOCC(O)CCc1n[nH]c(=S)n1-c1ccccc1 (centres undefined)		inactive: 11.5%
O=C(Nc1cc2c(cc1Cl)OCCCO2)c1ccco1	inconclusive: 5.62 µM [inhibitor, single point]	
Cc1ccc(C(=O)NC(=S)Nc2cccc(NC(=O)c3ccccc3)c2)cc1[N+](=O)[O-]	inconclusive: 20 µM [inhibitor, partial curve]	
COc1ccc(NC(=O)C(=O)c2cn(CC(=O)N3CCCC3)c3ccccc23)cc1OC		inactive: -16.7%
COc1ccc(C)cc1NC(=O)CN(C)S(=O)(=O)c1cc(C)ccc1OC	inconclusive: 3.16 µM [inhibitor, single point]	
CC(C)Cc1ccc(C(C)C(=O)Nc2ccccc2O)cc1 (centres undefined)	inconclusive: 14.1 µM [inhibitor, partial curve, poor fit]	
C=CCN(c1ccccc1OC)S(=O)(=O)c1cccc(C(=O)OCC(=O)c2c(N)n(C)c(=O)n(C)c2=O)c1	inconclusive: 20 µM [inhibitor, single point]	
CCOC(=O)C1=C(CN2CCCCC2)NC(=O)NC1c1ccc(OC)cc1 (centres undefined)	inconclusive: 11.2 µM [inhibitor, single point]	
C=C[C@@](C)(O)CC[C@@H]1[C@@]2(C)CCCC(C)(C)[C@@H]2CC[C@@]1(C)O	inconclusive: 15.8 µM [inhibitor, single point]	
CCS(=O)(=O)N1CCN(Cc2ccc([N+](=O)[O-])cc2)CC1	inconclusive: 31.6 µM [inhibitor, single point]	
Cc1nn(CCC(=O)NNC(=S)Nc2cccc(Cl)c2)c(C)c1[N+](=O)[O-]		inactive: 22.3%
CCc1cc(C(=O)NCC(c2cccs2)N2CCOCC2)sc1C (centres undefined)		inactive: 0%

Structure (SMILES)	Potency	activity, negative = inhibition
CCn1c(SCC(=O)Nc2nc(-c3ccccc3)cs2)nnc1-c1ccccc1	inconclusive: 11.2 µM [inhibitor, partial curve]	
COc1ccc(-c2sc3ccc(N4CCOCC4)cc3c2-c2ccc(O)cc2)cc1	inconclusive: 0.708 µM [inhibitor, full curve, poor fit]	
CCOc1ccc(CC(=O)NCc2cn3c(C)csc3n2)cc1		inactive: -4.89%
Cc1c(Cl)cccc1N=Cc1ccc([N+](=O)[O-])s1	inconclusive: 2.82 µM [inhibitor, full curve, poor fit]	
Cc1ccc(Nc2nc(N)nc(CCl)n2)cc1	inconclusive: 11.2 µM [inhibitor, partial curve]	
COc1cc2c(cc1OC)C(C(C(=O)N(CCc1ccc(OC)c(OC)c1OC)CCc1ccc(OC)c(OC)c1OC)c1ccccc1)=NCC2 (centres undefined)		inactive: -18.7%
CCCCN(C(=O)c1cccc(S(=O)(=O)N2CCN(C)CC2)c1)c1c(N)n(CCC)c(=O)[nH]c1=O	inconclusive: 25.1 µM [inhibitor, single point]	
c1ccc(-c2nc(N3CCCC3)nc3ccccc23)cc1		inactive: 0.333%
Clc1c(Cl)c(Cl)c2n[nH]nc2c1Cl	inconclusive: 15.8 µM [inhibitor, partial curve, poor fit]	
N#C/C(=N\Nc1ccc(S(=O)(=O)N2CCc3ccccc32)cc1)C(N)=S	active: 11.2 µM	
COc1ccc(-n2c(-c3cccc(OC)c3)nc(=S)c3c2CCCC3)cc1		inactive: -22.9%
O=C(COC(=O)c1ccc2[nH]c3c(c2c1)CCCC3)Nc1ccccc1	inconclusive: 35.5 µM [inhibitor, single point]	
COCCNC(=S)N/N=C(\C)c1ccc(-n2ccnc2)cc1	inconclusive: 15.8 µM [inhibitor, single point]	
CC1(C)C(=O)Nc2ccccc2N1C(=O)CSc1nnc2ccccn12		inactive: -14.2%
COc1ccccc1CNC(=O)C1CCN(S(=O)(=O)c2ccc(-n3cnnn3)cc2)CC1		inactive: -9.19%
O=S1(=O)N=C(Nc2nc3c(s2)CCCC3)c2ccccc21	inconclusive: 11.2 µM [inhibitor, single point]	
Oc1ccccc1C1=NOC(O)(C(F)F)C1 (centres undefined)		inactive: -6.4%
CC1(C)O[C@H]2[C@@H](O1)[C@@H](C(=O)Nc1cc(F)ccc1F)O[C@@H]1OC(C)(C)O[C@@H]12		inactive: 1.66%
C/C(=C(/NC(=O)c1ccccc1)C(=O)O)c1ccco1	inconclusive: 6.31 µM [inhibitor, single point]	
CCCCC1C(=O)N(c2ccccc2)N(c2ccc(O)cc2)C1=O (centres undefined)	active: 5.62 µM	
O=C(NC1CCN(Cc2ccccc2)CC1)c1cccc(NS(=O)(=O)c2ccc(Br)cc2)c1	inconclusive: 12.6 µM [inhibitor, partial curve, poor fit]	
CCOC(=O)c1ccc(CN(Cc2ccc(Cl)cc2Cl)S(=O)(=O)c2cccc(Cl)c2)cc1		inactive: -1.24%
CCCCN(C)CC(O)Cn1cc(/C=C/C(=O)c2ccc(OCC)cc2)c2ccccc21 (centres undefined)	inconclusive: 35.5 µM [inhibitor, single point]	
